Data taken from PubChem BioAssay AID1508624 (National Center for Advancing Translational Sciences (NCATS), 2021).
Out of some 48,000 compounds screened, about 120 (0.25%) were called active. Roughly 4% stayed inconclusive and do not appear here. Calls come from the whole dose curve; as a rule, active = well fitted activation curve with a large enough effect; inconclusive = small, poorly fitted or top-dose-only effect, or another doubt; inactive = no such curve, though single readings can be large or run the other way. The list shows a part of the results.

Experiment: Primary qHTS for Identification of Small Molecule Activators of Huntingtin-Antisense Promoter Activity; note: nearly all actives have a fitted effect of over 55% in size
Settings: HEK293 HTT-AS promoter firefly luciferase reporter, 24 h; series mostly up to 57.5 µM; activity change, positive = activation: at the top concentration
Outline: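 Luminescence was read after Dual-Glo reagent and a 10 min room-temperature incubation. Values were normalized to vehicle (0% activity) and zero RLU (-100% activity). Reporter HEK293 cells had been exposed to compounds (up to 57.5 uM final) for 24 h.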

Activity change, positive = activation, inactive:
O=C(COc1ccc(F)cc1)Nc1nnc(SCc2cc(=O)n3ccccc3n2)s1 -0.817%
CCC(C=C[C@@H]1OC(=O)C=C[C@H]1C)=C[C@H](C)CC=CC(C)=C[C@@H](C)C(=O)[C@@H](C)[C@H](O)[C@@H](C)CC(C)=CC(=O)O -35.7% [at 2.23 µM, percent change from vehicle, -100% = no light]
COc1ccc(N2Cc3cccc(C(=O)Nc4ccc(Cl)cc4)c3C2=O)cc1 -19.4%
COc1cccc(Cn2c(SCc3ccc(C(=O)N4CCCCC4)cc3)nc3ccncc32)c1 -48%
Cc1cc(Cl)ccc1NC(=O)CN1C(=O)COc2ccc(S(=O)(=O)Nc3ccccc3)cc21 -13.3%
Cc1ccc(CN(Cc2ccco2)C(=O)COc2cccc(C)c2C)o1 -29.4%
CCOC(=O)C1CCCN(C(=O)c2ccc3c(c2)sc2nc(-c4ccc(C)cc4C)cn23)C1 (stereo not drawn) 1.69%
Cc1ccc2c(=O)cc(C(=O)Nc3sc4c(c3C(=O)NCC3CCCO3)CCCC4)oc2c1C (stereo not drawn) 5.4%
Cc1ccc(Cl)cc1NC(=O)CCc1c(C)nc2c3cccnc3nn2c1C -19.1%
O=C(c1cccc(Cl)c1)N1c2ncnn2C2(CCCCC2)[C@@H]2CCCC[C@@H]21 -40%
COc1ccc(-c2ccc3c(N)c(C(=O)NCc4ccc(C)cc4)sc3n2)cc1 -13.5%
Cc1ccc2c(c1)N(C(=O)N1CCC(C(=O)NCCc3ccccc3)CC1)CC(C)O2 (stereo not drawn) -22%
CC(C)(C)OC(=O)N1CCC(c2c(C(=O)NCCN3CCOCC3)cnn2-c2ccc(F)cc2)CC1 -12.7%
O=C(Cn1nc(-c2ccccc2)c2cnc3ccc(F)cc3c21)NC1CCCC1 0.319%
CCOC(=O)C1CCN(c2cc(C)nc3c(-c4ccccc4OC)c(C)nn23)CC1 -45.7%
O=C(Nc1nnc(S(=O)(=O)N2CCCCCC2)s1)c1ccccc1F 23.6%
CCOc1cccc2sc(N3CCN(C(=O)C(C)(C)C)CC3)nc12 24.8%
Cc1nc(N2CCOCC2)c2c(C(=O)N(C)Cc3ccccc3)c(C)oc2n1 -1.91%
Cc1ccc(-c2nnc(SCC(=O)N3CCCc4ccccc43)o2)cc1 -4.41%
CCCCNc1nc(Oc2ccc(=O)n(-c3ccccc3)n2)nc(N(CC)CC)n1 -37%
Cc1cc(NC(=O)CSc2nc3c([nH]c4ccccc43)c(=O)n2-c2ccccc2F)no1 -27.9%
COc1cc(NC(=O)c2ccc3c(Cl)c4c(nc3c2)CCC4)cc(OC)c1OC 4.14%
CC(=O)c1cccc(-n2c(=O)c3c4c(sc3n(CC(=O)Nc3ccccc3F)c2=O)CN(C(C)=O)CC4)c1 3.69%
CC(C)(CC(=O)OCC(=O)Nc1ccccc1F)CC1=NS(=O)(=O)c2ccccc2N1 -30.7%
O=C(COc1ccc([N+](=O)[O-])cc1)N1CCC(c2nc3ccccc3s2)CC1 -77.7%
CCc1ccc(CNC(=O)C2CCN(c3nnc(C)c4c(C)n(-c5ccc(C)cc5)nc34)CC2)cc1 -11.5%
CCOc1ccc(N(C(C)C(=O)NCCSc2ccc(Cl)cc2)S(C)(=O)=O)cc1 (stereo not drawn) -43.8%
COc1cc([C@H]2Oc3cc([C@H]4Oc5cc(O)cc(O)c5C(=O)[C@H]4O)ccc3O[C@H]2CO)ccc1O -26.1%
COc1cc(OC)cc(C(=O)Nc2ccc(-c3nc4ccccc4s3)c(C)c2)c1 24.8%
Cc1ccc(N2C(=O)CS(=O)(=O)C23C(=O)N(Cc2ccccc2C)c2ccccc23)cc1Cl (stereo not drawn) -26.3%
COc1ccc(NC(=O)Cn2nc(-c3ccccc3)c3cnc4ccc(C)cc4c32)cc1 -7.66%
COc1ccc(-n2c(=O)[nH]c3cc(C(=O)NCCc4ccc(Cl)cc4)ccc3c2=O)cc1OC -27.1%
Cc1ccc(OCC(=O)Nc2ccc3c(c2)sc(=O)n3C)cc1 -15.5%
CCOC(=O)c1c(NC(=O)COc2ccc(CC)cc2)sc2c1CCCC2 -12.2%
Cc1ccc(-c2nc(C(=O)N3CCN(c4ccccc4)CC3)c3n2CCCCC3)cc1 -19.8%
COc1ccc(NC(=O)C(NC(=O)C2CCC(C)CC2)C(C)C)cc1 (stereo not drawn) -2.98%
CCC(Sc1ncccc1C(=O)Oc1ccccc1Cl)C(=O)Nc1ccccc1OC (stereo not drawn) -28.1%
CCCNC(=O)c1ccc2c(c1)nc(C)n2-c1cccc(C)c1 -10.3%
Cc1ccc2c(=O)c(C(=O)c3ccccc3)cn(CC(=O)Nc3ccc(C)c(Cl)c3)c2n1 -7.46%
Cc1nn(C)c2c1c(C(F)(F)F)cc(=O)n2C(C)C(=O)NCCC(C)C (stereo not drawn) -8.73%
Cc1ccc(C(=O)c2oc3ccccc3c2NC(=O)c2cc(=O)c3cc(C)ccc3o2)cc1 0.767% [at 11.5 µM, percent change from vehicle, -100% = no light]
COc1cccc(Cn2ccn(-c3ccc(F)cc3)c(=O)c2=O)c1 -3.91%
O=C(Nc1ccc(Cl)cc1)N1CCC(CN2CCCCCC2)CC1 26.3%
COc1ccc(NC(=O)Cn2cc(C(=O)c3ccncc3)c(=O)c3cc(C)ccc32)cc1Cl -14.3%
Cc1cccc(Cn2c(SCc3ccc(C(=O)NCc4ccccc4)cc3)nc3cccnc32)c1 -29.5%
COC(=O)c1ccc(-n2nnc(-c3nc(-c4ccccc4Cl)no3)c2C)cc1 0.65%
CCNC(=O)C1CCCN(c2ncnc3onc(C)c23)C1 (stereo not drawn) -9.98%
Cc1ccn2c(Nc3ccccc3C)c(-c3ccncc3)nc2c1 24.8%
CN1CCN(c2c(F)cc3c(=O)c(C(=O)O)cn4c3c2OCN4C)CC1
CCN(CCN(C)C)C(=O)Cn1ncc2c([nH]c3ccc(C)cc32)c1=O -4.89%
Cc1ccc(CNC(=O)C2CCN(Cc3nc(-c4ccccc4C)oc3C)CC2)cc1 -6.5%
CCCCn1c(CN2CCN(c3ccc(OC)cc3)CC2)nc2c1c(=O)[nH]c(=O)n2C -16.5%
Cc1cccc(NC(=O)CSc2nnc(CNC(=O)c3cccc(C)c3)n2-c2ccccc2)c1 -17.6%
Cc1ccccc1Cn1c(-c2cccs2)nc2ccccc21 -29.6%
COc1ccc(-c2noc(CN(C(=O)c3ccccc3Cl)C(C)C)n2)cc1 -19.1%
Cc1ccc2nc(CSc3nnc(NC(=O)CC(C)C)s3)cc(=O)n2c1 -0.573%
Cc1ccc(Cn2c(CN3CCC(C(=O)NCc4cccnc4)CC3)cc3ccccc32)cc1 -16.8%
CCOc1ccc(CNC(=O)CCC(=O)N2Cc3ccccc3Oc3ncccc32)cc1 -6.81%
